# Source: PubChem BioAssay (Tox21)
# “And” between values parts separate entries of the source, which are not always exact repeats. Identical values can stand only once. This list was built around the results that the source calls inconclusive (neither active nor inactive); the mix of calls is not that of the screen. For some of these results: Potencies of inconclusive entries are doubtful fits and often do not repeat. The source made the active and inactive calls. Unless noted, calls follow the shape of the dose curve; as a rule, active = well fitted cell-killing curve with a large enough effect in the repeat runs; inconclusive = weak or mixed curves, or effect the other way; inactive = no such curve, though single readings can be large or run the other way.
# Tests used:
# [1] = qHTS assay to identify small molecule antagonists of the vitamin D receptor (VDR) signaling pathway - cell viability counter screen (AID 743225); settings: VDR-bla HEK293T viability, CellTiter-Glo luminescence, 16 h; also: nearly all actives have a fitted effect of over 50% in size; as to viability change, negative = cytotoxic: % is scaled to controls: 0 for no effect and ±100 for the full control effect
# Method in brief: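 VDR-UAS-bla HEK 293T cells were plated and incubated 4 h at 37C, then dosed with compound plus 3 nM (final) 1-alpha,25-dihydroxyvitamin D3 for 16 h. After the 2 h beta-lactamase read, viability in the same wells was read as CellTiter-Glo luminescence after 30 min at room temperature.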
# [2] = qHTS assay to identify small molecule agonists of the NFkB signaling pathway - cell viability counter screen (AID 1159515; calls by dose curve; also: nearly all actives have a fitted effect of over 55% in size); settings: NFkB-bla ME-180 viability, CellTiter-Glo luminescence, 5 h; series mostly up to 61 µM
# Method in brief: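 Parallel cytotoxicity counter screen in ME-180 cells carrying an NFkB-response-element beta-lactamase reporter, 2,000 cells/well. Compound exposure lasted 5 hr at 37 C, 5% CO2. Cell viability was quantified by CellTiter-Glo luminescence.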
# [3] = qHTS assay to identify small molecule agonists of the farnesoid-X-receptor (FXR) signaling pathway - cell viability counter screen (AID 743218); settings: FXR-bla HEK293T viability, CellTiter-Glo luminescence, 16 h; viability change, negative = cytotoxic: at 62.6 µM (top of the series) unless noted; also: nearly all actives have a fitted effect of over 45% in size
# Method in brief: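 Viability of FXR-bla HEK 293T cells is measured by ATP-based CellTiter-Glo luminescence following 16 h compound treatment at 37 C and a prior 2 h room-temperature beta-lactamase substrate step.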
# [4] = qHTS assay to identify small molecule antagonists of the farnesoid-X-receptor (FXR) signaling pathway - cell viability counter screen (AID 743221; active = well fitted cell-killing curve with a large enough effect in the repeat runs, not every such curve was filed as active; inconclusive = weak or mixed curves, or effect the other way; inactive = no such curve, though single readings can be large or run the other way; also: nearly all actives have a fitted effect of over 50% in size); settings: FXR-bla HEK293T viability, CellTiter-Glo luminescence, 16 h; activity change, negative = cytotoxicity: at 62.6 µM (top of the series) unless noted
# Method in brief: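 GeneBLAzer FXR-UAS-bla HEK 293T cells, compound plus chenodeoxycholic acid (50 uM final), 16 h at 37 C. CellTiter-Glo added to the same wells after the beta-lactamase read; luminescence read after 30 min at room temperature as viability.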
# [5] = qHTS assay to identify small molecule agonists of the vitamin D receptor (VDR) signaling pathway - cell viability counter screen (AID 743224); settings: VDR-bla HEK293T viability, CellTiter-Glo luminescence, 16 h; series mostly up to 62.6 µM; also: nearly all actives have a fitted effect of over 50% in size
# Method in brief: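 Compounds were pin-transferred onto VDR-bla cells plated 4 h earlier; following 16 h incubation at 37C, cell viability was quantified by CellTiter-Glo luminescence after 30 min at room temperature.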
# [6] = qHTS assay to identify small molecule agonists of the endoplasmic reticulum stress response signaling pathway (AID 1159516; active = well fitted activation curve with a large enough effect in the signal ratio in the repeat runs, not every such curve was filed as active; inconclusive = weak or mixed curves, or effect the other way; the % refers to the signal ratio); settings: ESRE-bla HeLa, ER stress beta-lactamase reporter, 5 h; activation: at 61 µM (top of the series) unless noted
# Method in brief: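 Using a HeLa line with an ESRE-driven beta-lactamase gene, agonist activity was measured by FRET substrate fluorescence (460 and 530 nm emission) after cells were treated with compounds for 5 hr at 37 C and 5% CO2.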
# [7] = target: Vitamin D3 receptor (Homo sapiens) (UniProt P11473); assay: qHTS assay to identify small molecule antagonists of the vitamin D receptor (VDR) signaling pathway (AID 743223; active = well fitted inhibition curve with a large enough effect in the signal ratio in the repeat runs, not every such curve was filed as active; inconclusive = weak or mixed curves, or effect the other way; inactive = no such curve, though single readings can be large or run the other way; the % refers to the signal ratio; as to activity change, negative = inhibition: % is scaled to controls: 0 for no effect and ±100 for the full control effect); settings: VDR-UAS-bla HEK293T, beta-lactamase FRET ratio, 16 h; activity change, negative = inhibition: at 61 µM (top of the series) unless noted
# Method in brief: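 VDR-bla cells were treated with compound plus 3 nM final 1alpha,25-dihydroxyvitamin D3 for 16 h at 37C. Beta-lactamase reporter read by B/G FRET substrate fluorescence after 2 h at room temperature. qHTS format.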
# [8] = target: Bile acid receptor (Homo sapiens) (UniProt Q96RI1); assay: qHTS assay to identify small molecule agonists of the farnesoid-X-receptor (FXR) signaling pathway (AID 743220; active = well fitted activation curve with a large enough effect in the signal ratio in the repeat runs, not every such curve was filed as active; inconclusive = weak or mixed curves, or effect the other way; the % refers to the signal ratio); settings: HEK293T FXR-UAS-bla, beta-lactamase FRET ratio, 16 h; activation: at 62.6 µM (top of the series) unless noted
# Method in brief: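 FXR-UAS-bla HEK 293T cells carrying a UAS-driven beta-lactamase reporter were plated for 5 h at 37C/5% CO2, then exposed to DMSO-dissolved Tox21 10K compounds for 16 h at 37C. A LiveBLAzer B/G FRET substrate was loaded for 2 h at room temperature before fluorescence reading.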
# [9] = target: Vitamin D3 receptor (Homo sapiens) (UniProt P11473); assay: qHTS assay to identify small molecule agonists of the vitamin D receptor (VDR) signaling pathway (AID 743222; calls by dose curve; as to activation: % is scaled to controls: 0 for no effect and ±100 for the full control effect); settings: HEK293T VDR-UAS-bla, beta-lactamase FRET ratio, 16 h; activation: at 63.5 µM (top of the series) unless noted
# Method in brief: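 Fluorescence from cleaved LiveBLAzer B/G FRET substrate served as readout. VDR-bla cells had been treated 16 h at 37C with test compounds in DMSO, following a 4 h settling period, and substrate was loaded for 2 h at RT.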
# [10] = viability change, negative = cytotoxic: at 61 µM (top of the series)
# Potency is read from the fitted curve at half-maximal effect; tags tell the direction and shape of the fitted curve or compound fluorescence and quenching.
# UniProt P11473, sequence (P11473 whole entry, looked up): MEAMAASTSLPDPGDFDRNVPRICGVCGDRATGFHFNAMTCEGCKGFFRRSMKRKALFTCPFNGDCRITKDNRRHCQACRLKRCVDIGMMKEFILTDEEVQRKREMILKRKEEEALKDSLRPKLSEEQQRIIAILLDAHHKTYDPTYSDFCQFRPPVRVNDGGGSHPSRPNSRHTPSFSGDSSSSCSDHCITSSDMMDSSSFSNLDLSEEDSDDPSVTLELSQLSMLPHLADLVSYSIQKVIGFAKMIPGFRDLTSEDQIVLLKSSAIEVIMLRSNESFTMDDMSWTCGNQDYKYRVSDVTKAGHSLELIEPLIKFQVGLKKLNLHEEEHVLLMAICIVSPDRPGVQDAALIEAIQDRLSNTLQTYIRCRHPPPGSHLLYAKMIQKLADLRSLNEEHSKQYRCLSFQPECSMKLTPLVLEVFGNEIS
# UniProt Q96RI1, sequence (Q96RI1 whole entry, looked up): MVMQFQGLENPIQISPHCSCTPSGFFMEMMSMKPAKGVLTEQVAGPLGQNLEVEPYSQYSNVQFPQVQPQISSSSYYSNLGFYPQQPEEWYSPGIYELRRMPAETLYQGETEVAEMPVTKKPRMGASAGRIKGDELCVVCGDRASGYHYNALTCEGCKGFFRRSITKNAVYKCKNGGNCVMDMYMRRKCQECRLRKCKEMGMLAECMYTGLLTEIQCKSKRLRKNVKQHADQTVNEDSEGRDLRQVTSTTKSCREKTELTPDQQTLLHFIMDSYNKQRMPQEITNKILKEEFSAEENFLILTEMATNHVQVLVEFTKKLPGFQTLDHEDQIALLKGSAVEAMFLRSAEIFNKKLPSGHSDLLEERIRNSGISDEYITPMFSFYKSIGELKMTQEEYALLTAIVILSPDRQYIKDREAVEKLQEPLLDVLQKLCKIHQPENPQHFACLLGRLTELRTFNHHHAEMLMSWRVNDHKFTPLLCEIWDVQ
compound,measurement,setting,value
CCCC[n+]1cccc(C)c1,Potency,[1]; [10],"inconclusive: 9.91 µM [cytotoxic, full curve]"
same,Potency,[2],"inconclusive: 2.45 µM [cytotoxic, single point] and inconclusive: 17.6 µM [cytotoxic, partial curve, poor fit] and inconclusive: 17.4 µM [cytotoxic, partial curve, poor fit]"
[Cl-].[Cl-].[Hg+2],Potency,[3],active: 2.74 µM and active: 9.77 µM
same,Potency,[4],active: 2.18 µM and active: 3.47 µM
same,Potency,[5],active: 773 nM and active: 1.1 µM
same,Potency,[1]; [10],active: 1.22 µM and active: 3.47 µM
same,Potency,[2],active: 3.45 µM and active: 49 µM
CCCCCC[n+]1ccccc1,Potency,[4],"inconclusive: 17.5 µM [falling, partial curve, poor fit]"
same,Potency,[1]; [10],"inconclusive: 61.7 µM [cytotoxic, single point]"
same,Potency,[2],"inconclusive: 55.5 µM [cytotoxic, single point] and inconclusive: 55.3 µM [cytotoxic, single point] and inconclusive: 35.4 µM [cytotoxic, single point]"
same,Potency,[6],"inconclusive: 62.9 µM [rising, single point]"
Cc1cc(-c2ccc(N)c(C)c2)ccc1N,"viability change, negative = cytotoxic",[1]; at 61 µM (top of the series),inactive: 10.8% and inactive: 0.581%
same,"viability change, negative = cytotoxic",[1]; at 78.8 µM (top of the series),inactive: -9.96%
same,"viability change, negative = cytotoxic",[1]; [10],inconclusive: -2.48% [cytotoxic]
same,Potency,[2],inactive
BrC(Br)Br,Potency,[1]; [10],inactive
same,Potency,[2],"inconclusive: 61.7 µM [rising, partial curve, poor fit]"
ClC1=C(Cl)[C@]2(Cl)[C@H]3[C@H]([C@@H]4C=C[C@H]3C4)[C@@]1(Cl)C2(Cl)Cl,Potency,[7],"inconclusive: 7.75 µM [fluorescent, partial curve]"
same,Potency,[2],"active: 54.9 µM and inconclusive: 61.6 µM [cytotoxic, single point]"
same,Potency,[6],"inconclusive: 48.9 µM [cytotoxic, partial curve] and inconclusive: 61.6 µM [cytotoxic, single point]"
C=CCC1=C(C)[C@@H](OC(=O)[C@@H]2[C@@H](C=C(C)C)C2(C)C)CC1=O,Potency,[3],"inconclusive: 1.55 µM [rising, full curve, poor fit]"
same,Potency,[8],"inconclusive: 61.6 µM [activator, partial curve, poor fit]"
same,"activity change, negative = inhibition",[7],inconclusive: -32.2%
same,Potency,[5],active: 38.9 µM
same,Potency,[1]; [10],"inconclusive: 0.174 µM [cytotoxic, full curve, poor fit]"
same,Potency,[2],inactive
CCCCCCCCCCCCCCCC[N+](C)(C)C,Potency,[3],active: 14.9 µM and active: 43.6 µM and inconclusive: 16.8 µM [cytotoxic]
same,Potency,[9],"inconclusive: 17.4 µM [partial curve, poor fit]"
same,activation,[9],inconclusive: 0.456% and inconclusive: -17.3%
same,Potency,[7],"inconclusive: 23.7 µM [fluorescent, partial curve] and inconclusive: 61.6 µM [inhibitor, single point] and inconclusive: 26.8 µM [single point]"
same,Potency,[5],"active: 21.1 µM and active: 24.5 µM and inconclusive: 10.6 µM [cytotoxic, partial curve, poor fit]"
same,Potency,[1]; [10],active: 21.1 µM and active: 21.9 µM and active: 23.9 µM
same,Potency,[2],"inconclusive: 237 nM [cytotoxic, single point] and inconclusive: 54.9 µM [cytotoxic, single point] and inconclusive: 30.1 µM [cytotoxic, single point]"
Cc1cc(N=Nc2ccccc2C)ccc1N,Potency,[4],"inconclusive: 21.9 µM [falling, single point]"
same,Potency,[9],"inconclusive: 17.4 µM [inhibitor, partial curve]"
same,activation,[9],inconclusive: -17.3%
same,"activity change, negative = inhibition",[7],inconclusive: 1.22% [inhibitor] and inconclusive: -47.3%
same,Potency,[1]; [10],"inactive and inconclusive: 43.6 µM [cytotoxic, partial curve]"
same,Potency,[2],"inconclusive: 54.9 µM [cytotoxic, single point]"
same,Potency,[6],"inconclusive: 49 µM [cytotoxic] and inconclusive: 54.9 µM [cytotoxic, single point]"
